Laboratory results published in PMC10991392.
Results are given in words; binding and its absence hold for the method and conditions named. Binding seen in cells or lysates may run through a third protein. Some entries that bind do so weakly or less than the wild type.

The chains behind the UniProt entries cited, without tags or fusion partners. Where a name states a change or a piece, a line headed by the entry shows the natural chain unless it says otherwise. A line that says so, or that is headed by a name, gives the form on record, which may keep a tag or linker.
UniProt Q12778: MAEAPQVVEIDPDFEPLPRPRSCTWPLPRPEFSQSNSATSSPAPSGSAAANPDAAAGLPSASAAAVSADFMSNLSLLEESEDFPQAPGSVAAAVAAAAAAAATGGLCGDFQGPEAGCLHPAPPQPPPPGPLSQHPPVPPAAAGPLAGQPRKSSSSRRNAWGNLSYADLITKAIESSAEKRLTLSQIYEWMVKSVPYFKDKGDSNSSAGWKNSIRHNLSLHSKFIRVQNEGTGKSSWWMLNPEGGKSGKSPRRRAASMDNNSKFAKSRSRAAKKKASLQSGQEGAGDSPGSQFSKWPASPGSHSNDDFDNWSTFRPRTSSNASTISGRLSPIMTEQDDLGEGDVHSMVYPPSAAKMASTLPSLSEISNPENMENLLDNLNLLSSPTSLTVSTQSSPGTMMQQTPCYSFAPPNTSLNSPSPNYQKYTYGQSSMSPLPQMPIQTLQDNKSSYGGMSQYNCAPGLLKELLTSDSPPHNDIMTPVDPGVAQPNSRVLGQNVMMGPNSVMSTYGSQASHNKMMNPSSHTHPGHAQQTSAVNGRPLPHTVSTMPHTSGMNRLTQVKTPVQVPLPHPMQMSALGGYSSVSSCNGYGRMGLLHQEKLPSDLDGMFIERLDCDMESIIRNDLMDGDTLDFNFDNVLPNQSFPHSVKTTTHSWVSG
FLAG-tagged FOXO1-minus NLS/NES (Q12778, form named): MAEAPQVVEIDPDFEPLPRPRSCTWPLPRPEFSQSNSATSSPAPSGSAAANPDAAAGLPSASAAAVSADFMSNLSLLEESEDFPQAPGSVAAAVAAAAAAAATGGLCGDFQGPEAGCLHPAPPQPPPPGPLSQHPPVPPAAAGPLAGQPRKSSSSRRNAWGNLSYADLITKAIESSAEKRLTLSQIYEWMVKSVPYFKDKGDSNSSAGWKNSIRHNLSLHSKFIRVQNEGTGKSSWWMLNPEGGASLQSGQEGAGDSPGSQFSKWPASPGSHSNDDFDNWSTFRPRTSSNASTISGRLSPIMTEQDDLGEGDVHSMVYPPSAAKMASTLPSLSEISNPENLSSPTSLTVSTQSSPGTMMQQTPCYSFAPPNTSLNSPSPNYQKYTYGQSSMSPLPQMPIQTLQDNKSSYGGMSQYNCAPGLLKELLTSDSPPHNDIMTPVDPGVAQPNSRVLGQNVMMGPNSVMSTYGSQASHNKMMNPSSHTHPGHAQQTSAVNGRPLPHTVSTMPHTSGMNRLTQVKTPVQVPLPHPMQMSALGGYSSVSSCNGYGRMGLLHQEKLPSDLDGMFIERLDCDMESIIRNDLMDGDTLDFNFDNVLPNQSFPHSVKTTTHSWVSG
UniProt O14980: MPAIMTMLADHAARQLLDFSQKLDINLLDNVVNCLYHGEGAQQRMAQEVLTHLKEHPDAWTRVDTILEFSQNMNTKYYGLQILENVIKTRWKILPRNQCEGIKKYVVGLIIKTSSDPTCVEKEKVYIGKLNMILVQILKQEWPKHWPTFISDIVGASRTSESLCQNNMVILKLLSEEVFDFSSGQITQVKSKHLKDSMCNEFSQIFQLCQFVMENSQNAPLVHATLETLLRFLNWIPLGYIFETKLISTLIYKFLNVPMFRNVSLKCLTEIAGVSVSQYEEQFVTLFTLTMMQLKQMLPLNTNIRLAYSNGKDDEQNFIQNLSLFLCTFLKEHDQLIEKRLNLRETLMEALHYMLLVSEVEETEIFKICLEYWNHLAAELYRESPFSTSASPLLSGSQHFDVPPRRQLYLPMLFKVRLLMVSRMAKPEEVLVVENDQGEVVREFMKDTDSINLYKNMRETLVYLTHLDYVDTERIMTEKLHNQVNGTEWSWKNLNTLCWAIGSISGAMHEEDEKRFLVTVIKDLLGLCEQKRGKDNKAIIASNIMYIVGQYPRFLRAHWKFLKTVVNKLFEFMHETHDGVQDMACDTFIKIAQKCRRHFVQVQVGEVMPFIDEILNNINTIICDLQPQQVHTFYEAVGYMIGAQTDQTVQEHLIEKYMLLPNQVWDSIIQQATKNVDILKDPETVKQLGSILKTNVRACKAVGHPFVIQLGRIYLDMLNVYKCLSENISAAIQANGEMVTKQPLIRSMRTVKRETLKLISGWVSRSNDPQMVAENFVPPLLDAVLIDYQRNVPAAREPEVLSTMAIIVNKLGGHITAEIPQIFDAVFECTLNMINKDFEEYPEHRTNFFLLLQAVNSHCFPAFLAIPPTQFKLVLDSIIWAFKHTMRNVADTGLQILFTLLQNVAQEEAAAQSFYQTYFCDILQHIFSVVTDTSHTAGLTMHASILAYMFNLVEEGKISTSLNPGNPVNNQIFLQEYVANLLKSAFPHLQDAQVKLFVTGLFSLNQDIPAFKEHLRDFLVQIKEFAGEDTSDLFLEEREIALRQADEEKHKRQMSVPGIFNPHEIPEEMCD

Tests used:
[1] = target: forkhead box O1 (FOXO1) (human (endogenous in H1 ESCs and ARPE-19)) (UniProt Q12778); assay: proximity ligation; PLA in ARPE-19(WT) and ARPE-19(FOXO1-minus SIM) cells at 37 °C; FOXO1 with endogenous XPO1 or with overexpressed HA-tagged XPO1 K752R/K957R
[2] = target: FLAG-tagged FOXO1-minus NLS/NES (UniProt Q12778); assay: proximity ligation; PLA in ARPE-19(WT) cells overexpressing FLAG-tagged FOXO1 or FOXO1-minus NLS/NES, at 37 °C and 4 °C; with XPO1 or IPO7
FLAG-tagged FOXO1 = FLAG-tagged FOXO1 (UniProt Q12778); assay: as above
[3] = target: forkhead box O1 (FOXO1) (human (endogenous in H1 ESCs and ARPE-19)) (UniProt Q12778); assay: proximity ligation; PLA kit (DUO92101, Sigma-Aldrich) on fixed, permeabilised H1 ESCs kept at 37 °C or exposed to 4 °C; endogenous proteins; puncta per cell counted
[4] = target: forkhead box O1 (FOXO1) (human (endogenous in H1 ESCs and ARPE-19)) (UniProt Q12778); assay: co-IP; FOXO1 immunoprecipitated from H1 cell extracts (cells at 37 °C or 4 °C); blots for XPO1, IPO7 and FOXO1
[5] = target: forkhead box O1 (FOXO1) (human (endogenous in H1 ESCs and ARPE-19)) (UniProt Q12778); assay: co-IP; FOXO1 immunoprecipitated from ARPE-19(WT) and ARPE-19(FOXO1-minus SIM) cell extracts at annotated temperatures; blots for XPO1, IPO7 and FOXO1

Substance | binding [1] | binding [2] | binding (FLAG-tagged FOXO1) | binding [3] | binding [4] | binding [5]
HA-tagged XPO1 with both SUMOylation sites replaced with an arginine residue (K752R and K957R) (from UniProt O14980 1-1071) | no binding |  |  |  |  | 
Exportin-1 (XPO1) (from UniProt O14980 1-1071) | binds | binds | binds | binds | binds | binds
